Assay results: US20240076343A1

What was measured:
Test in all cases: cell-based or functional assay
[1] = molecular target: high-affinity hIL-2 receptor (IL-2Rαβγ) on NK-92 cells (human) (UniProt P01589)
[2] = molecular target: intermediate affinity hIL-2 receptor (hIL-2Rβγ) on TF1+IL-2Rβ cells (human) (UniProt P14784)
[3] = molecular target: intermediate affinity hIL-2 receptor complex (IL-2Rβγ) (human) (UniProt P14784)
[4] = molecular target: high-affinity hIL-2 receptor (IL-2Rαβγ) (human) (UniProt P01589)

| Binder | Fold change from rhIL-2 (NK-92) [1] | Fold change from rhIL-2 (TF1 + IL-2Rβ) [2] | Fold change from rhIL-2 (TF1 + IL-2Rβ), pSTAT5 titration [3] | Fold change from hIL-2 (NK-92) [1] | Fold change from rhIL-2 (NK-92), pSTAT5 titration [4] | Fold change from hIL-2 (NK-92), pSTAT5 fixed conc. [4] | Fold change from hIL-2 (TF1 + IL-2Rβ), pSTAT5 fixed conc. [3] | Agonistic Activity (TF1 + IL-2Rβ) [2] |
| --- | --- | --- | --- | --- | --- | --- | --- | --- |
| 1H3-hIgG1-L6-hIL-2 (R38E) (protein) heavy: EVQLVESGGGLVQPGRSLKLSCAVSGFTFSDYAMAWVRQAPKKGLEWVATISYDGSRTYYRDSVKGRFTISRDNAKITLYLQMDSLRSEDTATYYCARHGSGYFDYWGQGVMVTVSS[not shown - about 450 residues with a human IgG1 Fc and changes] light: DTVLTQSPALAVSPGERVTISCRASESVRTGVHWYQQKPGQQPKLLIYGASNLESGVPARFSGSGSGTDFTLTIDPVEADDTATYFCQQSWNDPFTFGSGTKLEIKRTVAAPSVFIFPPSDEQLKSGTASVVCLLNNFYPREAKVQWKVDNALQSGNSQESVTEQDSKDSTYSLSSTLTLSKADYEKHKVYACEVTHQGLSSPVTKSFNRGEC | 7 fold | 1 fold | 0 fold | – | – | – | – | – |
| 1H3-hIgG1-L6-hIL-2 (D20F) (protein) heavy: EVQLVESGGGLVQPGRSLKLSCAVSGFTFSDYAMAWVRQAPKKGLEWVATISYDGSRTYYRDSVKGRFTISRDNAKITLYLQMDSLRSEDTATYYCARHGSGYFDYWGQGVMVTVSS[not shown - about 450 residues with a human IgG1 Fc and changes] light: DTVLTQSPALAVSPGERVTISCRASESVRTGVHWYQQKPGQQPKLLIYGASNLESGVPARFSGSGSGTDFTLTIDPVEADDTATYFCQQSWNDPFTFGSGTKLEIKRTVAAPSVFIFPPSDEQLKSGTASVVCLLNNFYPREAKVQWKVDNALQSGNSQESVTEQDSKDSTYSLSSTLTLSKADYEKHKVYACEVTHQGLSSPVTKSFNRGEC | – | > 10000 fold | > 10000 fold | 17 fold | – | – | – | – |
| 1H3-hIgG1-L6-hIL-2 (D20S) (protein) heavy: EVQLVESGGGLVQPGRSLKLSCAVSGFTFSDYAMAWVRQAPKKGLEWVATISYDGSRTYYRDSVKGRFTISRDNAKITLYLQMDSLRSEDTATYYCARHGSGYFDYWGQGVMVTVSS[not shown - about 450 residues with a human IgG1 Fc and changes] light: DTVLTQSPALAVSPGERVTISCRASESVRTGVHWYQQKPGQQPKLLIYGASNLESGVPARFSGSGSGTDFTLTIDPVEADDTATYFCQQSWNDPFTFGSGTKLEIKRTVAAPSVFIFPPSDEQLKSGTASVVCLLNNFYPREAKVQWKVDNALQSGNSQESVTEQDSKDSTYSLSSTLTLSKADYEKHKVYACEVTHQGLSSPVTKSFNRGEC | 1 fold | – | 277 fold | 4 fold | 28 fold | – | – | – |
| 1H3-hIgG1-L6-hIL-2 (R38E/I92T) (protein) heavy: EVQLVESGGGLVQPGRSLKLSCAVSGFTFSDYAMAWVRQAPKKGLEWVATISYDGSRTYYRDSVKGRFTISRDNAKITLYLQMDSLRSEDTATYYCARHGSGYFDYWGQGVMVTVSS[not shown - about 450 residues with a human IgG1 Fc and changes] light: DTVLTQSPALAVSPGERVTISCRASESVRTGVHWYQQKPGQQPKLLIYGASNLESGVPARFSGSGSGTDFTLTIDPVEADDTATYFCQQSWNDPFTFGSGTKLEIKRTVAAPSVFIFPPSDEQLKSGTASVVCLLNNFYPREAKVQWKVDNALQSGNSQESVTEQDSKDSTYSLSSTLTLSKADYEKHKVYACEVTHQGLSSPVTKSFNRGEC | – | – | – | – | – | 22 fold | 1 fold | – |
| 1H3-hIgG1-L6-hIL-2 (D20W) (protein) heavy: EVQLVESGGGLVQPGRSLKLSCAVSGFTFSDYAMAWVRQAPKKGLEWVATISYDGSRTYYRDSVKGRFTISRDNAKITLYLQMDSLRSEDTATYYCARHGSGYFDYWGQGVMVTVSS[not shown - about 450 residues with a human IgG1 Fc and changes] light: DTVLTQSPALAVSPGERVTISCRASESVRTGVHWYQQKPGQQPKLLIYGASNLESGVPARFSGSGSGTDFTLTIDPVEADDTATYFCQQSWNDPFTFGSGTKLEIKRTVAAPSVFIFPPSDEQLKSGTASVVCLLNNFYPREAKVQWKVDNALQSGNSQESVTEQDSKDSTYSLSSTLTLSKADYEKHKVYACEVTHQGLSSPVTKSFNRGEC | – | > 10000 fold | > 10000 fold | 16 fold | – | – | – | – |
| 1H3-hIgG1-L6-hIL-2 (N88D) (protein) heavy: EVQLVESGGGLVQPGRSLKLSCAVSGFTFSDYAMAWVRQAPKKGLEWVATISYDGSRTYYRDSVKGRFTISRDNAKITLYLQMDSLRSEDTATYYCARHGSGYFDYWGQGVMVTVSS[not shown - about 450 residues with a human IgG1 Fc and changes] light: DTVLTQSPALAVSPGERVTISCRASESVRTGVHWYQQKPGQQPKLLIYGASNLESGVPARFSGSGSGTDFTLTIDPVEADDTATYFCQQSWNDPFTFGSGTKLEIKRTVAAPSVFIFPPSDEQLKSGTASVVCLLNNFYPREAKVQWKVDNALQSGNSQESVTEQDSKDSTYSLSSTLTLSKADYEKHKVYACEVTHQGLSSPVTKSFNRGEC | 0 fold | – | 130 fold | 2 fold | 21 fold | – | – | – |
| 1H3-hIgG1-L6-hIL-2 (R38E/I92V) (protein) heavy: EVQLVESGGGLVQPGRSLKLSCAVSGFTFSDYAMAWVRQAPKKGLEWVATISYDGSRTYYRDSVKGRFTISRDNAKITLYLQMDSLRSEDTATYYCARHGSGYFDYWGQGVMVTVSS[not shown - about 450 residues with a human IgG1 Fc and changes] light: DTVLTQSPALAVSPGERVTISCRASESVRTGVHWYQQKPGQQPKLLIYGASNLESGVPARFSGSGSGTDFTLTIDPVEADDTATYFCQQSWNDPFTFGSGTKLEIKRTVAAPSVFIFPPSDEQLKSGTASVVCLLNNFYPREAKVQWKVDNALQSGNSQESVTEQDSKDSTYSLSSTLTLSKADYEKHKVYACEVTHQGLSSPVTKSFNRGEC | – | – | – | – | – | 21 fold | 1 fold | – |

The next lines start with the values.

| Fold change from rhIL-2 (NK-92) [1] | Fold change from rhIL-2 (TF1 + IL-2Rβ) [2] | Fold change from rhIL-2 (TF1 + IL-2Rβ), pSTAT5 titration [3] | Fold change from hIL-2 (NK-92) [1] | Fold change from rhIL-2 (NK-92), pSTAT5 titration [4] | Fold change from hIL-2 (NK-92), pSTAT5 fixed conc. [4] | Fold change from hIL-2 (TF1 + IL-2Rβ), pSTAT5 fixed conc. [3] | Agonistic Activity (TF1 + IL-2Rβ) [2] | Binder |
| --- | --- | --- | --- | --- | --- | --- | --- | --- |
| – | – | – | – | – | 23 fold | 1 fold | – | 1H3-hIgG1-L6-hIL-2 (R38E/I92W) (protein) heavy: EVQLVESGGGLVQPGRSLKLSCAVSGFTFSDYAMAWVRQAPKKGLEWVATISYDGSRTYYRDSVKGRFTISRDNAKITLYLQMDSLRSEDTATYYCARHGSGYFDYWGQGVMVTVSS[not shown - about 450 residues with a human IgG1 Fc and changes] light: DTVLTQSPALAVSPGERVTISCRASESVRTGVHWYQQKPGQQPKLLIYGASNLESGVPARFSGSGSGTDFTLTIDPVEADDTATYFCQQSWNDPFTFGSGTKLEIKRTVAAPSVFIFPPSDEQLKSGTASVVCLLNNFYPREAKVQWKVDNALQSGNSQESVTEQDSKDSTYSLSSTLTLSKADYEKHKVYACEVTHQGLSSPVTKSFNRGEC |
| – | – | – | – | – | 21 fold | 1 fold | – | 1H3-hIgG1-L6-hIL-2 (R38E/I92Y) (protein) heavy: EVQLVESGGGLVQPGRSLKLSCAVSGFTFSDYAMAWVRQAPKKGLEWVATISYDGSRTYYRDSVKGRFTISRDNAKITLYLQMDSLRSEDTATYYCARHGSGYFDYWGQGVMVTVSS[not shown - about 450 residues with a human IgG1 Fc and changes] light: DTVLTQSPALAVSPGERVTISCRASESVRTGVHWYQQKPGQQPKLLIYGASNLESGVPARFSGSGSGTDFTLTIDPVEADDTATYFCQQSWNDPFTFGSGTKLEIKRTVAAPSVFIFPPSDEQLKSGTASVVCLLNNFYPREAKVQWKVDNALQSGNSQESVTEQDSKDSTYSLSSTLTLSKADYEKHKVYACEVTHQGLSSPVTKSFNRGEC |
| 4 fold | – | 195 fold | 2 fold | 14 fold | – | – | – | 1H3-hIgG1-L6-hIL-2 (D84K) (protein) heavy: EVQLVESGGGLVQPGRSLKLSCAVSGFTFSDYAMAWVRQAPKKGLEWVATISYDGSRTYYRDSVKGRFTISRDNAKITLYLQMDSLRSEDTATYYCARHGSGYFDYWGQGVMVTVSS[not shown - about 450 residues with a human IgG1 Fc and changes] light: DTVLTQSPALAVSPGERVTISCRASESVRTGVHWYQQKPGQQPKLLIYGASNLESGVPARFSGSGSGTDFTLTIDPVEADDTATYFCQQSWNDPFTFGSGTKLEIKRTVAAPSVFIFPPSDEQLKSGTASVVCLLNNFYPREAKVQWKVDNALQSGNSQESVTEQDSKDSTYSLSSTLTLSKADYEKHKVYACEVTHQGLSSPVTKSFNRGEC |
| – | 959 fold | – | 3 fold | – | – | – | 80% | 1H3-hIgG1-L6-hIL-2 (N88R) (protein) heavy: EVQLVESGGGLVQPGRSLKLSCAVSGFTFSDYAMAWVRQAPKKGLEWVATISYDGSRTYYRDSVKGRFTISRDNAKITLYLQMDSLRSEDTATYYCARHGSGYFDYWGQGVMVTVSS[not shown - about 450 residues with a human IgG1 Fc and changes] light: DTVLTQSPALAVSPGERVTISCRASESVRTGVHWYQQKPGQQPKLLIYGASNLESGVPARFSGSGSGTDFTLTIDPVEADDTATYFCQQSWNDPFTFGSGTKLEIKRTVAAPSVFIFPPSDEQLKSGTASVVCLLNNFYPREAKVQWKVDNALQSGNSQESVTEQDSKDSTYSLSSTLTLSKADYEKHKVYACEVTHQGLSSPVTKSFNRGEC |
| – | 8 fold | > 10000 fold | 12 fold | – | – | – | 50% | 1H3-hIgG1-L6-hIL-2 (D20I) (protein) heavy: EVQLVESGGGLVQPGRSLKLSCAVSGFTFSDYAMAWVRQAPKKGLEWVATISYDGSRTYYRDSVKGRFTISRDNAKITLYLQMDSLRSEDTATYYCARHGSGYFDYWGQGVMVTVSS[not shown - about 450 residues with a human IgG1 Fc and changes] light: DTVLTQSPALAVSPGERVTISCRASESVRTGVHWYQQKPGQQPKLLIYGASNLESGVPARFSGSGSGTDFTLTIDPVEADDTATYFCQQSWNDPFTFGSGTKLEIKRTVAAPSVFIFPPSDEQLKSGTASVVCLLNNFYPREAKVQWKVDNALQSGNSQESVTEQDSKDSTYSLSSTLTLSKADYEKHKVYACEVTHQGLSSPVTKSFNRGEC |
